# From PMC6212790
# Some of the results follow. At the low end of the ranking the order means little.
# Target: T1, GST-Rok-C97-191 (UniProt O34857)
# T1 sequence: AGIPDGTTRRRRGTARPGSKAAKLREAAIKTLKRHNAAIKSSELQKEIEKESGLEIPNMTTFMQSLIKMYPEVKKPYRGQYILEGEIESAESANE
# Assay: protein binding microarray;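 further: rank score from −0.5 (least bound) to 0.5 (best bound)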
# Conditions: Rok is a gene silencer of Bacillus subtilis; high values mean tight binding; most listed sequences are background and not binding sites; double strand, one strand shown
row,Sequence,binding signal [E-score]
1,CCTTCCGA,-0.265
2,ACGACACG,-0.138
3,ATTTTTAC,0.328
4,AACCTAGT,0.207
5,AGGCGGCC,-0.381
6,GTGTGTAA,0.152
7,CCTAGATA,0.0777
8,AGCGCGTC,-0.162
9,GCGAGCCA,-0.148
10,ATTACAGC,0.215
11,AGACCACA,-0.105
12,CGTAGGGA,-0.151
13,CGACAGTA,0.208
14,CGGAAAGC,-0.153
15,CGGCGGTC,-0.0584
16,ACCTTTCG,-0.0711
17,GGTGGGGA,-0.287
18,CTCTCGTC,-0.11
19,CGGTCACA,-0.00534
20,ATCACCAC,0.0496
21,CGTCTAAA,-0.0728
22,GGAAATGA,-0.0558
23,AACTTAAG,0.0428
24,ATATTACC,0.304
25,AGTCTTAT,0.256

row,Sequence,binding signal [E-score]
1,AAGCGGCA,-0.227
2,TAGTAATA,0.403
3,CGCATAAC,0.0446
4,CTTTCGTC,0.0144
5,GAGCACAC,-0.0393
6,AGTTATAT,0.239
7,ATGGGCAC,-0.122
8,TGTCGCAA,0.027
9,CTCCGCGA,-0.0751
10,ATAGTCTA,0.118
11,ATGGATGA,0.133
12,AACGGGGT,-0.0866
13,CGGCCCAA,-0.179
14,CGGCGGGA,-0.127
15,TAGAAACA,0.306
16,GACAAACA,0.0203
17,CTCCGACA,-0.289
18,CGACAATA,0.123
19,GGGCCGAA,-0.265
20,CGTAGAAC,0.207
21,CACAACCG,-0.0715
22,CGTTCAGA,0.00206
23,CCATAGAA,0.0533
24,CAAAAGCA,-0.192
25,CTAACCCA,0.0606

row,Sequence,binding signal [E-score]
1,AGAGGACG,-0.277
2,AAGCACAC,-0.128
3,GGAGAAAA,0.0231
4,ATTTAGCC,0.232
5,AAAGTGGG,-0.169
6,ATGATCGA,0.0912
7,CCTGGTTA,0.0123
8,ATTCAAAT,-0.0558
9,CTCCGCTC,-0.148
10,ACAATCGG,-0.106
11,ACATACCC,-0.0351
12,GACCCTGA,-0.367
13,ATTACATC,0.137
14,GGGGCAAC,-0.227
15,AAAAAGCT,0.0222
16,CAATCAGA,-0.301
17,GGGTCCAA,-0.33
18,GTAACGGA,0.0166
19,CCGGGATA,-0.0118
20,AAACGGAG,-0.159
21,CAGATAGA,0.16
22,GCGACAGC,-0.016
23,AGGACGGC,-0.287
24,ACGTAATG,0.258
25,ACCGCGAA,0.0444

row,Sequence,binding signal [E-score]
1,ATTCATAC,0.319
2,CTTGTTTC,-0.0603
3,AAGTGGCG,-0.0539
4,AGAGGTCC,-0.239
5,CTCGTCAA,-0.246
6,GGGACCCC,-0.39
7,ACTTTCCT,0.0736
8,ATACTGTC,0.0333
9,ATCCCACC,-0.0116
10,ATCGGATG,-0.0196
11,CCGACCGA,-0.214
12,CGTGCACG,0.052
13,CACGACTC,-0.0526
14,ACAATGAA,0.0771
15,ACAATTCG,0.0651
16,ATGCCTCG,-0.186
17,CTTTCCGC,-0.0117
18,TCGGAACA,-0.143
19,AGCGTGTG,-0.0167
20,AATAAACT,0.244
21,ACGCGCCC,-0.24
22,GGACCAAA,-0.211
23,AAGTTGCG,0.0296
24,AAAAGGGT,-0.0457
25,ACATAACT,0.265

row,Sequence,binding signal [E-score]
1,AGCTGTCA,0.0202
2,CAGCAATA,0.203
3,ACGGAGGA,-0.291
4,CGCGAGTA,0.113
5,ACACTGTC,-0.089
6,ATGATCAC,0.0913
7,GGCTCGCA,-0.224
8,GCTACACC,-0.0612
9,ACCAGAAT,0.103
10,AGCAAGAC,-0.139
11,GCGCAAAC,0.146
12,GGGGAGCA,-0.318
13,ATTGTTGC,0.15
14,AACCTTGG,-0.172
15,ATCGTTAC,-0.0272
16,ATATGCCC,0.062
17,CGGGAACC,-0.188
18,GGCGTTGA,-0.0681
19,CTCCAGCA,0.0279
20,CATCAATC,-0.0832
21,GGTCTGAA,0.0526
22,AGTACTAC,0.35
23,AGCCCGAG,-0.202
24,GCAGCGTA,-0.208
25,ATACTATA,0.365

row,Sequence,binding signal [E-score]
1,ACTGGCAG,-0.166
2,AAAAGGAG,-0.0392
3,CGCTAGAC,0.00486
4,TCGCCCCA,-0.0292
5,AAGCCCAC,-0.214
6,ACCTACGT,0.161
7,AAGGCTAG,0.0655
8,CAATCCCC,-0.0586
9,ACCACCAC,-0.102
10,GGATTTAC,0.132
11,AACATATT,0.24
12,CCATCCAC,-0.165
13,GTCTCAAA,-0.0258
14,CGTTTCTC,-0.0794
15,TCTAAACA,-0.105
16,CGTATCAA,0.0404
17,ACAGATGA,0.0485
18,CGTCGAGC,-0.175
19,AGTAGCAA,0.277
20,GTGGCATA,-0.0162
21,AAACTAAG,0.251
22,CAGGAGAG,-0.115
23,CAAATATA,0.346
24,ATCCTTCG,-0.0586
25,AATGGGAT,0.00426

row,Sequence,binding signal [E-score]
1,CAGAGGAG,-0.272
2,AGCATGGG,-0.154
3,GGTATGGA,-0.0223
4,AACTAGAT,0.388
5,TCTCGCCA,-0.0338
6,ACGGATCA,-0.111
7,AATAGGTA,0.311
8,CCTGTTAC,0.0823
9,CCTGTCAC,-0.294
10,GGTCTCGA,-0.246
11,CAACATTC,-0.0739
12,GATTCAGA,-0.0773
13,CCCAGATC,-0.282
14,TACGTTGA,0.0426
15,CCTAAAAG,-0.0533
16,AATCCCAG,-0.0202
17,AACCGACC,-0.11
18,CATTAACG,0.0908
19,GATCGAAC,0.079
20,CAACAGAC,-0.0835
21,CCCAATGC,-0.0562
22,ACTTATAC,0.291
